PubChem BioAssay AID624202 (National Center for Advancing Translational Sciences (NCATS), 2012)
The whole screen tested about 380,000 compounds, of which about 4,000 (1.1%) were called active. Inconclusive means that the source gave no clear call. Such entries were picked first, then a sample of the others. The call rests on the fitted dose curve; in most records, active means well fitted activation curve with a large enough effect; inconclusive means small, poorly fitted or top-dose-only effect; inactive means no such curve, though single readings can be large or run the other way. Potencies of inconclusive entries are doubtful fits and often do not repeat.

Assay: qHTS Assay to Identify Small Molecule Activators of BRCA1 Expression; further: nearly all actives have a fitted effect of over 80% in size
Details: MCF7-BRCA1-FFLuc reporter, luminescence, 48 h; activation: at 46.1 µM (top of the series), scaled: vehicle 0%, 10 µM genistein 100% unless noted
Outline: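 MCF7-BRCA1-FFLuc cells, 2000/well in phenol-red-free MEM, attached 2 h then treated 48 h at 37 C. Luciferase luminescence read 15 min after reagent; normalized to genistein maximum activation (10microM) and DMSO, concentration-response fitted.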
Potency means the concentration at half of the fitted maximal effect; tags describe the fitted curve by direction and shape.

SMILES | activation | Potency
CC1Cc2ccccc2N1C(=O)CN1CCN(S(=O)(=O)c2ccc3c(c2)OCCCO3)CC1 (stereo not drawn) | inactive: -34.8% | –
CCCCOc1ccc(/C=C/C(=O)Nc2ccc(C(N)=O)cc2)cc1 | inactive: 19.1% | –
O=C(NC1CC1)c1ccc2sc([C@H]3C[C@H](O)[C@@H](CO)O3)nc2c1 | inactive: 2.44% | –
O=C(CSc1nnc(-c2ccc(OC(F)F)cc2)o1)N1CCOCC1 | – | active: 12.6 µM
O=C(c1cnn2c(C(F)(F)F)cc(-c3ccc(F)cc3)nc12)N1CCc2ccccc2C1 | inactive: -69.2% | –
Cc1cccc(NC(=O)NC(=O)c2ccccc2)n1 | – | inconclusive: 3.55 µM [activator, partial curve, poor fit]
C=C1NN(CC2CC2)C(=O)N1c1ccc(OCc2ccccc2)cc1 | – | inconclusive: 11.2 µM [activator, partial curve, poor fit]
COc1ccc2[nH]c(C(=O)Nc3cccc(C)n3)cc2c1 | – | inconclusive: 1.12 µM [activator, full curve, poor fit]
CCc1ccc(-c2nc3c(=O)n(C)c(=O)nc-3n(CC)n2)cc1 | inactive: -80.1% | –
O=C(NCC1CC1)Nc1ccc(Cl)cc1 | – | active: 10 µM
O=C(Nc1ccc(Cl)cc1)c1cc(-c2cccs2)on1 | – | inconclusive: 20 µM [activator, single point]
O=C(CSc1ccccc1)Nc1ccc(-c2nc3ccccc3[nH]2)cc1 | – | inconclusive: 2 µM [activator, partial curve, poor fit]
Brc1ccc(/C=N/Nc2ccc3ccccc3n2)cc1 | – | inconclusive: 10 µM [activator, partial curve, poor fit]
O[C@@H]1CN(C2CCN(Cc3ccccc3)CC2)CC[C@H]1N1CCCCCC1 | inactive: 2.17% | –
Nc1ccc2oc3ccc(N)cc3c(=O)c2c1 | – | inconclusive: 2 µM [activator, partial curve, poor fit]
COc1ccc(NC(=O)CSc2ccccn2)c([N+](=O)[O-])c1 | – | inconclusive: 11.2 µM [activator, partial curve, poor fit]
CCOC(=O)c1c(C)[nH]c(C(=O)CSc2nccc(C)n2)c1C | – | inconclusive: 2.24 µM [activator, full curve, poor fit]
Nc1nonc1-c1noc(-c2ccccc2)n1 | – | inconclusive: 10 µM [activator, partial curve, poor fit]
O=C(Nc1cccc(Cl)c1)c1ccc(OC(=S)N2CCOCC2)cc1 | – | inconclusive: 2.51 µM [activator, full curve, poor fit]
Cc1ccc(-n2ncc(C(=O)NCCc3c[nH]c4ccccc34)c2C2CCN(C(=O)OC(C)(C)C)CC2)cc1C | inactive: -77.2% | –
C/C(N)=C(/C#N)C(=O)COC(=O)c1cc2c(s1)CCCC2 | – | inconclusive: 14.1 µM [activator, single point]
CN(C)C(=O)c1ccc(NC(=O)COC(=O)C2(c3ccccc3)CCCC2)cc1 | inactive: -13.4% | –
CCN(CC)C(=O)CSC(=Nc1ccccc1F)NC#N | – | active: 11.2 µM
CCOC(=O)Cc1cc(=O)n2[nH]c(C)c(-c3ccccc3)c2n1 | inactive: -7.46% | –

SMILES | activation | Potency
O=c1nc(N/N=C/C=C/c2ccccc2)cn[nH]1 | – | inconclusive: 1.58 µM [activator, full curve, poor fit]
Cc1ccc(NC(=O)N2CCC(c3ccccc3)C2)cc1C (stereo not drawn) | – | active: 2.82 µM
Fc1cccc(Cl)c1CSc1nnc(-c2ccncc2)o1 | – | inconclusive: 7.94 µM [activator, partial curve, poor fit]
COc1ccc2sc(NCc3ccccc3)nc2c1 | – | active: 2.82 µM
Cc1sc2ncnc(SCC(=O)N(C)C3CCS(=O)(=O)C3)c2c1C (stereo not drawn) | inactive: -5.06% | –
Cc1nn(CCC(=O)N2CCN(S(=O)(=O)c3ccccc3)CC2)c(C)c1C | inactive: 0.0854% | –
CCc1ccc(CN(C)C(=O)CCc2nnc(COc3ccccc3)o2)cc1 | – | inconclusive: 22.4 µM [activator, single point]
Cc1ccc(NC(=O)Nc2ccc3c(c2)OCO3)cc1F | – | active: 0.891 µM
Cc1ccc(OCCCSc2ncccn2)cc1C | – | inconclusive: 25.1 µM [activator, single point]
Cc1ccccc1NC(=O)c1ccc2c(c1)N(C)CCS2 | – | inconclusive: 6.31 µM [activator, partial curve, poor fit]
S=C(Nc1ccc(Cl)cc1)N1CCCCC1 | inactive: 42.1% | –
COc1ccc(C(=O)O/N=C(\N)c2ccccn2)cc1[N+](=O)[O-] | – | inconclusive: 2.51 µM [activator, full curve, poor fit]
c1ccc(Cn2cc(-c3ccccc3)cn2)cc1 | – | inconclusive: 12.6 µM [activator, partial curve, poor fit]
CCCCCCOC(=O)c1ccc(N)cc1 | – | inconclusive: 35.5 µM [activator, single point]
CC(C)c1ccc(C(=O)Nc2cc(-c3ccccc3F)nn2-c2ccccc2)cc1 | inactive: 0% | –
COc1cccc(CNc2cc(C)ccn2)c1O | – | inconclusive: 11.2 µM [activator, partial curve, poor fit]
C=CCNCCCOc1ccc(Cl)cc1C(C)(C)C | inactive: -7.5% | –
CC(=O)Nc1ccc(-c2cn3ccsc3n2)cc1 | – | inconclusive: 2 µM [activator, full curve, poor fit]
CCOCC(=O)Nc1cc(S(=O)(=O)N2CCOCC2)ccc1N1CCCCC1 | inactive: -11.5% | –
COc1ccc(Nc2cccccc2=O)cc1 | – | inconclusive: 11.2 µM [activator, partial curve, poor fit]
Cc1cc2sc3nc(=O)n(-c4ccccc4)c(=O)n3c2cc1C | – | inconclusive: 1.58 µM [activator, partial curve, poor fit]
Cc1cc(C)c(C(=O)Nc2ccc3c(c2)OCCO3)c(C)c1 | – | inconclusive: 10 µM [activator, partial curve, poor fit]
CC(/C=N/NC(=O)c1cccnc1)=C\c1ccccc1 | – | active: 3.16 µM
COc1ccc(-c2cc(C(=O)Nc3ccc(S(=O)(=O)Nc4onc(C)c4C)cc3)c3ccccc3n2)cc1OC | – | inconclusive: 3.16 µM [activator, partial curve, poor fit]
